Assay results from publication PMC4336329 (PLoS ONE, 2015).
Screen size: about 310,000 compounds; about 2,200 (0.71%) showed an effect of 50% or more. Effects have a minus sign here. Some of the results follow.

Each compound was assayed against human ether-à-go-go-related gene (hERG) potassium channel (human, UniProt Q12809) (assay: primary screen, population patch clamp on CHO cells stably expressing hERG).
human ether-à-go-go-related gene (hERG) potassium channel, sequence (Q12809 whole entry, looked up): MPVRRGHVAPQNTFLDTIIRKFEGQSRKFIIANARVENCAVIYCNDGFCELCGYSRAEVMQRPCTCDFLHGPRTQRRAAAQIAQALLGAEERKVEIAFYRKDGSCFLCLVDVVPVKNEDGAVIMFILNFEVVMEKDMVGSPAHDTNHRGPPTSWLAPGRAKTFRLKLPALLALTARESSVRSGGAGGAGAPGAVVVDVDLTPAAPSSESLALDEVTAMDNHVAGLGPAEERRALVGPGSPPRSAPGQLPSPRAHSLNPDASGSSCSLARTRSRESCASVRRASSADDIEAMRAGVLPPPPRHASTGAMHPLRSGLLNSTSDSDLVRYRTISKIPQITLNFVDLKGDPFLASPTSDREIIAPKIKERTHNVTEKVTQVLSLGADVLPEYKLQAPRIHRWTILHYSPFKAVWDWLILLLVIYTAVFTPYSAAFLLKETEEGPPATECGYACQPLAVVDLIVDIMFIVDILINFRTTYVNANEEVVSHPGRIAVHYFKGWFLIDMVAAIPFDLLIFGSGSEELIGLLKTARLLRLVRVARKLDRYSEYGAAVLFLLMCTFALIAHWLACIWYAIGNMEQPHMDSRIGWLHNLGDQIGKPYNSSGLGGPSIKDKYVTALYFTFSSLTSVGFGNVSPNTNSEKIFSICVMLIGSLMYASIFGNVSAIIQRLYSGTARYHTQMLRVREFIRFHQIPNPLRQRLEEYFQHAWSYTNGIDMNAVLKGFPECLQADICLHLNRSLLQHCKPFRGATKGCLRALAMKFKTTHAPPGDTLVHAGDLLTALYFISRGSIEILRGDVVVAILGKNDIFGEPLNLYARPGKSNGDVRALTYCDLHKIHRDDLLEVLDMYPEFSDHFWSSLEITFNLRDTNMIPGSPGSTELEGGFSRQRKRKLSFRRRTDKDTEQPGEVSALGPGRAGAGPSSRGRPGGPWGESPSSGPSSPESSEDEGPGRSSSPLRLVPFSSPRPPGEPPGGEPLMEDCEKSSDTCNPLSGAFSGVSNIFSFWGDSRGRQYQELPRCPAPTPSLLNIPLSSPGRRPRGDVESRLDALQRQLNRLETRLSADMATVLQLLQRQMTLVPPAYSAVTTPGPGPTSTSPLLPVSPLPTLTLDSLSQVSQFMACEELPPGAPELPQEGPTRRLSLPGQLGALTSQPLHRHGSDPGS

Row | Structure (SMILES) | hERG current change (%, negative = inhibition) at 1uM
1 | Cc1nc2c(ccc3nc(NC(=O)c4ccc5c(c4)OCCO5)sc32)s1 | -86.6%
2 | COc1ccc(CC(=O)N2CC(C)CC(C)C2)cc1OC (stereo not shown) | 5.78%
3 | CC(=O)Nc1ccc(S(=O)(=O)N(C#N)c2nc(N(C)C)nc(N(C)C)n2)cc1 | 14.2%
4 | N#CC(C#N)=C1C(=O)N(CCN2CCOCC2)c2ccccc21 | 16.1%
5 | COc1cc2c3c(c1OC)C1(C=CC(=NNC(N)=O)C=C1)CC3N(C(C)=O)CC2 (stereo not shown) | 2.18%
6 | O=C(NCC(c1cccs1)N1CCOCC1)c1cccnc1 (stereo not shown) | 7.27%
7 | CCC(CC)C(=O)Oc1c(Sc2ccccc2[N+](=O)[O-])c(C)nn1C(C)(C)C | 8.84%
8 | Cc1occc1C(=O)NNC(=O)COc1ccc(Br)cc1Br | 12.1%
9 | COc1ccc(NC(=S)NC2CCCCCC2)c(OC)c1 | 2.89%
10 | CCCCOC(=O)C1=C(C)Nc2ncnn2C1c1cccc(OC)c1 (stereo not shown) | 8.83%
11 | CSc1nc2n(n1)C(c1cc(Br)ccc1F)C(C(=O)N(C)C)=C(C)N2 (stereo not shown) | -7.16%
12 | CCc1csc(CCNC(=O)C2CCC(=O)N(Cc3ccccc3F)C2)n1 (stereo not shown) | 5.32%
13 | CC(CC(=O)O)CC(=O)Nc1ccccc1C(=O)O (stereo not shown) | -16.4%
14 | COc1ccccc1N(Cc1ccccc1)S(=O)(=O)c1cccc(C(=O)NC2CC(C)(C)NC(C)(C)C2)c1 | -2.06%
15 | ClC(Cl)(Cl)c1ccccc1 | 12.4%
16 | CC1=CC(=O)C(C(C)C)=C/C1=N/OS(=O)(=O)c1ccccc1 | 7.66%
17 | O=[N+]([O-])c1ccc(/C=C/c2ccncc2)cc1 | 2.2%
18 | C=CCC1(CC=C)CCCN1C(=O)c1cc(COc2ccccc2SC)on1 | 6.72%
19 | CCOC(=O)/C(C#N)=C\c1c(C)cc(C)c(COC(C)=O)c1C | 15.6%
20 | CC(Sc1nncs1)C(=O)Nc1ccc(Cl)cn1 (stereo not shown) | 1.34%

Row | Structure (SMILES) | hERG current change (%, negative = inhibition) at 1uM
21 | O=S(=O)(c1ccc2c(c1)CCCN2)N1CCCCC1 | -2.78%
22 | COCC(=O)Nc1cc(C(=O)Nc2ccccc2)ccc1Cl | 6.99%
23 | COC(=O)C(CCSC)NC(=O)C(NC(=O)C1CCC(C)CC1)C(C)C (stereo not shown) | 9.53%
24 | c1ccc2c3n(nc2c1)CCCCO3 | 2.92%
25 | CN(Cc1ccc(C(C)(C)C)cc1)C(=O)c1ccc2c(=O)n3c(nc2c1)CCC3 | -5.45%
26 | CC1CN(S(=O)(=O)c2cccc(C(=O)OCC(=O)Nc3ccc4c(c3)OCO4)c2)CC(C)O1 (stereo not shown) | 6.67%
27 | CC(OC(=O)Cc1n[nH]c(=O)c2ccccc12)C(=O)Nc1ccc(F)cc1Cl (stereo not shown) | 5.43%
28 | COc1c(Cl)cc(-c2noc(C)c2C(=O)NCCc2ccc(C)cc2)cc1Cl | 4.34%
29 | Cc1nnc(SCc2nnc(-c3cccs3)o2)s1 | 5.06%
30 | Cc1ccc2c(CSc3nnc4ccccn34)cc(=O)oc2c1C | -3.5%
31 | COc1ccc(C2Nc3ccccc3C(=O)N2c2ccc(C)cc2)cc1Cn1nc(C)c([N+](=O)[O-])c1C (stereo not shown) | 14%
32 | COC(C(=O)Nc1ccnn1C1CCN(Cc2cnn(C)c2)CC1)c1ccccc1 (stereo not shown) | 15.1%
33 | COC(=O)Cc1c(C)c2ccc(OC3CCCCC3=O)cc2oc1=O (stereo not shown) | 11.5%
34 | CCCc1nc(SCc2ccccc2Cl)n[nH]1 | 14.2%
35 | Cc1cc(C)nc(SC(C(=O)O)c2ccccc2)n1 (stereo not shown) | 11.3%
36 | CCOC(=O)Cn1cc(C#N)c2ccccc21 | 12.7%
37 | NC(=O)[C@H]1CC2(CC(c3cccc(NC(=O)CC(c4ccccc4)c4ccccc4)c3)=NO2)CN1C(=O)c1ccccc1C(=O)c1ccccc1 (stereo partly shown) | 7.67%
38 | COC(=O)c1ccc(C23CC4(C2)[C@H](CN(Cc2ccc(-c5ccccc5)cc2)[C@@H]4c2ccccc2)C3c2ccc(C(F)(F)F)cc2)cc1 (stereo partly shown) | -2.35%
39 | COc1ccc(-c2csc(C)n2)cc1 | 1.64%
40 | Cc1cccnc1NC(=O)c1ccc2c(c1)OCO2 | 1.76%

Row | Structure (SMILES) | hERG current change (%, negative = inhibition) at 1uM
41 | Cn1c(=O)[nH]c(Nc2ccccc2)c([N+](=O)[O-])c1=O | 12.8%
42 | COc1ccc(-c2nnc(C)c3nocc23)cc1 | 9.85%
43 | Cc1cccn2c(=O)c3cc(C(=O)NC4CCCC4)c(=N)n(CC4CCCO4)c3nc12 (stereo not shown) | -80.2%
44 | O=C(NCc1ccco1)C1CCN(c2ccc(N3CCOCC3)nn2)CC1 | 7.3%
45 | Cc1cccc(NS(=O)(=O)c2cnc(Cl)c(Br)c2)n1 | -1.1%
46 | COc1ccc(Cc2nc3ccc(C(=O)N(C)Cc4cc(C)[nH]n4)cc3o2)cc1OC | 18%
47 | CCCOc1ccccc1/C=C(\C#N)C(=O)Nc1cccnc1 | -0.538%
48 | CCOC1C(=O)NC(=O)N1Cc1ccccc1 (stereo not shown) | 10.3%
49 | C#CCC(NC(=O)c1ccc(C#N)cc1)C(=O)NCCC (stereo not shown) | 16.4%
50 | CC(C)c1nnc(SCC(=O)Nc2ccc3c(c2)OCO3)n1C | 9.15%
51 | O=S(=O)(c1ccc2c(c1)CCN2)N1CCOCC1 | 7.59%
52 | Cc1nc(-c2ccc(Cl)cc2)sc1C1(C)CC(c2ccccc2F)=NO1 (stereo not shown) | 9.8%
53 | CN(C)c1ccc(C(=O)/C=C/c2cccnc2)cc1 | 18%
54 | O=C(CC1C(=O)NCCN1Cc1ccccc1C(F)(F)F)NCCN1CCOCC1 (stereo not shown) | 9.33%
55 | Cc1ccc(C)n1NC(=O)c1ccccc1 | 21%
56 | O=C(CN1CCN(Cc2ccc(F)cc2)CC1)NCc1ccccc1 | 0.469%
57 | CN(C)S(=O)(=O)c1ccc2c(c1)c(=O)c(C(=O)NCCCN1CCCCCC1)cn2C | 7.93%
58 | COc1ccc(CCNC(=O)c2ccc([N+](=O)[O-])cc2)cc1 | 3.21%
